Assay results as given in the supplement of paper PMC4604168 (melanoma cell lines).
Some of the results follow. Single values are uncertain, as repeats are few or missing.
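Note: cell number obtained by counting DAPI-stained nuclei in high-throughput microscope images with image analysis software, screen run in 1,536-well plates.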

What follows are compounds tested on WM1716 (assay: cell count relative to DMSO control; melanoma cells; higher = more viable cells). Conditions: library dose: low library concentration; 72 h.
In the case of NC(=O)Nc1cc(-c2cccc(F)c2)sc1C(=O)N[C@H]1CCCNC1 + COc1ccc(COc2ccc(Cc3cnc(N)nc3N)cc2OC)cc1 [GW2580] (first compound 0.02 µM, partner dose 1 µM), the cell count is reported as 87.7%.
Compound NC(=O)Nc1cc(-c2cccc(F)c2)sc1C(=O)N[C@H]1CCCNC1 + O=C(Nc1ccccc1)c1cc([N+](=O)[O-])ccc1Cl [GW9662] (first compound 0.02 µM, partner dose 2 µM) has a cell count of 107%.
With C[C@]1(c2nc3c(C(N)=O)cccc3[nH]2)CCCN1 [Veliparib] + CCc1ccc(CCOc2ccc(CC3SC(=O)NC3=O)cc2)nc1 [pioglitazone] (first compound 1.4 µM, partner dose 2 µM) the cell count was 81.8%.
With OCCn1cc(-c2cnc3nnn(Cc4ccc5ncccc5c4)c3n2)cn1 + COc1ccc2c(c1)CCC1C2CCC2(C)C(NCCCCCCN3C(=O)C=CC3=O)CCC12 [U73122] (first compound 1 µM, partner dose 0.4 µM) the cell count was 89%.
Cc1nc(Nc2ncc(C(=O)Nc3c(C)cccc3Cl)s2)cc(N2CCN(CCO)CC2)n1 [dasatanib] + O=C(O)C(=O)Nc1sc2c(c1C(=O)O)CCNC2 [TCS401] (first compound 0.004 µM, partner dose 1.66667 µM) was tested, and the cell count was 60.3%.
For NCC(=O)Nc1ccc(-n2nc(C(F)(F)F)cc2-c2ccc3c(ccc4ccccc43)c2)cc1 + O=C1NC(=O)/C(=C/c2ccc(-c3ccc(F)cc3O)o2)S1 [AS252424] (first compound 1 µM, partner dose 1 µM), the cell count was 81.2%.
CO[C@@H]1[C@H](N(C)C(=O)c2ccccc2)C[C@H]2O[C@]1(C)n1c3ccccc3c3c4c(c5c6ccccc6n2c5c31)C(=O)NC4 [Midostaurin] + CN(C)S(=O)(=O)c1ccc2c(c1)/C(=C/c1cc3c([nH]1)CCCC3)C(=O)N2 [SU6656] (first compound 0.08 µM, partner dose 0.4 µM) gave a cell count of 77%.
C[C@]1(c2nc3c(C(N)=O)cccc3[nH]2)CCCN1 [Veliparib] + O=C(O)C(=O)Nc1sc2c(c1C(=O)O)CCNC2 [TCS401] (first compound 1.4 µM, partner dose 1.66667 µM) was tested, and the cell count was 96.6%.
Work on CO[C@@H]1[C@H](N(C)C(=O)c2ccccc2)C[C@H]2O[C@]1(C)n1c3ccccc3c3c4c(c5c6ccccc6n2c5c31)C(=O)NC4 [Midostaurin] + COc1cc2ncnc(Nc3ccc(Oc4ccccc4)cc3)c2cc1OC [SrcI1] (first compound 0.08 µM, partner dose 2 µM) yielded a cell count of 50.3%.
In the case of C[C@]1(c2nc3c(C(N)=O)cccc3[nH]2)CCCN1 [Veliparib] + Oc1cc(-c2nc(-c3ccccc3)[nH]c2-c2ccncc2)ccc1Cl [L779450] (first compound 1.4 µM, partner dose 0.2 µM), the cell count is reported as 112%.
Compound CO[C@@H]1[C@H](N(C)C(=O)c2ccccc2)C[C@H]2O[C@]1(C)n1c3ccccc3c3c4c(c5c6ccccc6n2c5c31)C(=O)NC4 [Midostaurin] + Cc1cc(N2CCOCC2)cc2[nH]c(-c3c(NC[C@@H](O)c4cccc(Cl)c4)cc[nH]c3=O)nc12 [BMS536924] (first compound 0.08 µM, partner dose 0.2 µM) has a cell count of 74.9%.
In the case of C[C@]1(c2nc3c(C(N)=O)cccc3[nH]2)CCCN1 [Veliparib] + O=C(CCCCCCC(=O)Nc1ccccc1)NO [vorinostat] (first compound 1.4 µM, partner dose 0.08 µM), the cell count is reported as 88.5%.
Cc1nc(Nc2ncc(C(=O)Nc3c(C)cccc3Cl)s2)cc(N2CCN(CCO)CC2)n1 [dasatanib] + Cc1cc([N+](=O)[O-])ccc1NS(=O)(=O)c1cc(Cl)ccc1Cl [FH535] (first compound 0.004 µM, partner dose 1 µM) showed a cell count of 61.5%.
CO[C@@H]1[C@H](N(C)C(=O)c2ccccc2)C[C@H]2O[C@]1(C)n1c3ccccc3c3c4c(c5c6ccccc6n2c5c31)C(=O)NC4 [Midostaurin] + O=C(O)C(=O)Nc1sc2c(c1C(=O)O)CCNC2 [TCS401] (first compound 0.08 µM, partner dose 1.66667 µM) gave a cell count of 88.5%.
Work on C[C@]1(c2nc3c(C(N)=O)cccc3[nH]2)CCCN1 [Veliparib] + OCCn1cc(-c2cnc3nnn(Cc4ccc5ncccc5c4)c3n2)cn1 [PF04217903] (first compound 1.4 µM, partner dose 1 µM) yielded a cell count of 86%.
